The values that follow come from article PMC6760448, “The DRS–AIMP2–EPRS subcomplex acts as a pivot in the multi-tRNA synthetase complex” (IUCrJ, 2019).

These are yes or no findings as the source states them, for the method shown. Some binding calls cover weakened binding; strength is not graded here. For some assays here: Where a sequence is shown, tags or fusion partners need not be part of it.

The target in assay [1] is T1, C-terminally truncated human EPRSGST (Met1–Gln157) (human) (UniProt P07814).
T1 sequence: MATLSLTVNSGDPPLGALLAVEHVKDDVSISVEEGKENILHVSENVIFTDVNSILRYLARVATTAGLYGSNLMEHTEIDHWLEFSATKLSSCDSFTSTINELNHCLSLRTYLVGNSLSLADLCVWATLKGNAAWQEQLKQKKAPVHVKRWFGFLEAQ
The experiment in a line: SEC; separately transformed strains pooled in one culture, proteins met on cell disruption by sonication; His6 affinity (HiTrap Chelating HP), then HiLoad 16/600 Superdex 200 pg in 50 mM HEPES–NaOH pH 8.0, 200 mM NaCl, 5 mM DTT, 1% glycerol; SDS–PAGE of the highest peak. For orientation: Size exclusion chromatography separates by hydrodynamic size, large species first.

Assay [2] deals with T1, C-terminally truncated human EPRSGST (Met1–Gln157) (human). The experiment in a line: crystal structure; DRS–AIMP2-DX2-S34–EPRSGST (DA2E) subcomplex, 3.6 Å, space group P6_(1), two subcomplexes in the asymmetric unit; crystals at 22°C from sodium/potassium phosphate, 0.1 M CAPS pH 10.5, lithium sulfate; both purified.
Assay [3] concerns the target T2, N-terminally truncated human aspartyl-tRNA synthetase (residues Ala21–Pro501) (human) (UniProt P14868).
T2 sequence: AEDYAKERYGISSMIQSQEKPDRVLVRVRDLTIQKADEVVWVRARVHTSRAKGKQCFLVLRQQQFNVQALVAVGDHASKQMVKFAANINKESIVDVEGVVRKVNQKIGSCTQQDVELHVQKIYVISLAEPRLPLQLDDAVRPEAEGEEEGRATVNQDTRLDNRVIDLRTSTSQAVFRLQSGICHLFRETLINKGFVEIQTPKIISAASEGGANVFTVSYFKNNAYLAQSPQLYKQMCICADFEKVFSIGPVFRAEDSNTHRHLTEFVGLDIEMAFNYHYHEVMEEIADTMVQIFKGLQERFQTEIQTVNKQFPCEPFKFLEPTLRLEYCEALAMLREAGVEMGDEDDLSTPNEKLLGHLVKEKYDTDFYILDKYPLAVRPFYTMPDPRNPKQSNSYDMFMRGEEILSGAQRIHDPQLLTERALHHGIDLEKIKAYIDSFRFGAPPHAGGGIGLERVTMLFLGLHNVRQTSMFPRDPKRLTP
The experiment in a line: crystal structure; crystals of the binary DA2 subcomplex, diffracted only to 4.5 Å; data not shown; both purified.

In assay [4] the target is T2, N-terminally truncated human aspartyl-tRNA synthetase (residues Ala21–Pro501) (human). The experiment in a line: crystal structure; DRS–AIMP2-DX2-S34–EPRSGST (DA2E) subcomplex, 3.6 Å, space group P6_(1), two subcomplexes in the asymmetric unit; crystals at 22°C from sodium/potassium phosphate, 0.1 M CAPS pH 10.5, lithium sulfate; both purified.
Assay [5] shares this target. The experiment in a line: SEC; separately transformed strains pooled in one culture, proteins met on cell disruption by sonication; His6 affinity (HiTrap Chelating HP), then HiLoad 16/600 Superdex 200 pg in 50 mM HEPES–NaOH pH 8.0, 200 mM NaCl, 5 mM DTT, 1% glycerol; SDS–PAGE of the highest peak.

B1: aminoacyl-tRNA synthetase complex-interacting multifunctional protein 3 (protein, UniProt O43324 1-174)
chain: MAAAAELSLLEKSLGLSKGNKYSAQGERQIPVLQTNNGPSLTGLTTIAAHLVKQANKEYLLGSTAEEKAIVQQWLEYRVTQVDGHSSKNDIHTLLKDLNSYLEDKVYLTGYNFTLADILLYYGLHRFIVDLTVQEKEKYLNVSRWFCHIQHYPGIRQHLSSVVFIKNRLYTNSH
Take B1: the binding result in assay [1] was “binds”.

B2: C-terminally truncated human EPRSGST (Met1–Gln157) (domain or fragment, UniProt P07814 1-157, looked up)
chain: T1 sequence
notes: human glutamyl-prolyl-tRNA synthetase (EPRS), GST domain, residues Met1–Gln157; also called GST domain of glutamyl-prolyl-tRNA synthetase; source: E. coli BL21-CodonPlus (DE3)-RIPL; culture pooled with those of the partners, co-purified (HiTrap Chelating HP, Superdex 200); not shown: His6, C-terminal, kept
Regarding B2, the binding entry in assay [2] is given as “no binding”.

B3: N-terminally truncated human AIMP2 splice variant lacking exon 2 (residues Ser34–Gln45 and Asp115–Lys320) (domain or fragment, UniProt Q13155 34-45; Q13155 115-320)
chain: SYGPAPGAGHVQDYGALKDIVINANPASPPLSLLVLHRLLCEHFRVLSTVHTHSSVKSVPENLLKCFGEQNKKQPRQDYQLGFTLIWKNVPKTQMKFSIQTMCPIEGEGNIARFLFSLFGQKHNAVNATLIDSWVDIAIFQLKEGSSKEKAAVFRSMNSALGKSPWLAGNELTVADVVLWSVLQQIGGCSVTVPANVQRWMRSCENLAPFNTALKLLK
As for B3, the binding entry in assay [3], in assay [4] and in assay [5] was “binds” in each case.
